{
  "source": "patent US20230301999A1",
  "about": "“METHODS OF TREATING GOUT” (Horizon Therapeutics USA, Inc., priority 2020, published 2023)",
  "test_system": "adult patients with uncontrolled gout",
  "assay": "Open-label study of pegloticase with MTX: serum uric acid observed values and change from baseline",
  "format": "in vivo, human",
  "conditions": "Month 6 sUA responders",
  "description": "KXX treatment typically is monitored using regular determination of the patient's SUA levels. A reduction in the serum uric acid level relative to the SUA in the patient before KXX treatment may generally be indicative of successful treatment with KXX, alone, or co-administered with an immunosuppressive agent or therapy, such as MTX, as described herein. Collection and measurement of a patient's serum uric acid levels are known to those of skill in the art. In some embodiments, the patient's serum uric acid levels are assayed before each KXX therapy. In some embodiments, any suitable method for collecting appropriate samples and methods of measuring or quantifying uric acid levels may be used in accordance with the disclosure.\nCriteria for Evaluation: Efficacy was assessed by SUA levels, tender and swollen joint counts, patient and physician global assessments of gout, joint pain, and DECT.\nPatients were administered oral MTX (15 mg/week) and folate (1 mg/day) 4 weeks prior to the first pegloticase infusion (Day 1) and throughout the pegloticase treatment period. Blood was drawn prior to each infusion to measure sUA level, monitor clinical parameters, and examine for ADA development. All patients followed typical IR prophylaxis protocols (fexofenadine one day before and the morning of each infusion and acetaminophen and IV corticosteroid the morning of each infusion). […] The primary study outcome was the proportion of responders, defined as sUA<6 mg/dL for at least 80% of the time during month 6 (weeks 20, 22, and 24). All analyses were performed on a modified intent-to-treat population, defined as patients who received ≥1 pegloticase infusion.",
  "data": [
    {"substance": "pegloticase", "values": [
      {"measurement": "sUA observed, mean", "setting": "Week 14 - Post-Infusion, n=10", "value": 0.30, "unit": "mg/dL"},
      {"measurement": "sUA observed, median", "setting": "Week 14 - Post-Infusion, n=10", "value": 0.30, "unit": "mg/dL"},
      {"measurement": "sUA < 6 mg/dL, %", "setting": "Week 14 - Pre-Infusion, n=11", "value": "(100%)"},
      {"measurement": "sUA observed, mean", "setting": "Week 14 - Pre-Infusion, n=11", "value": 0.30, "unit": "mg/dL"},
      {"measurement": "sUA observed, median", "setting": "Week 14 - Pre-Infusion, n=11", "value": 0.30, "unit": "mg/dL"},
      {"measurement": "sUA < 6 mg/dL, %", "setting": "Week 16 - Post-Infusion, n=11", "value": "(100%)"},
      {"measurement": "sUA observed, mean", "setting": "Week 16 - Post-Infusion, n=11", "value": 0.30, "unit": "mg/dL"},
      {"measurement": "sUA observed, median", "setting": "Week 16 - Post-Infusion, n=11", "value": 0.30, "unit": "mg/dL"},
      {"measurement": "sUA < 6 mg/dL, %", "setting": "Week 16 - Pre-Infusion, n=11", "value": "(100%)"},
      {"measurement": "sUA observed, mean", "setting": "Week 16 - Pre-Infusion, n=11", "value": 0.30, "unit": "mg/dL"},
      {"measurement": "sUA observed, median", "setting": "Week 16 - Pre-Infusion, n=11", "value": 0.30, "unit": "mg/dL"},
      {"measurement": "sUA < 6 mg/dL, %", "setting": "Week 18 - Post-Infusion, n=11", "value": "(100%)"},
      {"measurement": "sUA observed, mean", "setting": "Week 18 - Post-Infusion, n=11", "value": 0.30, "unit": "mg/dL"},
      {"measurement": "sUA observed, median", "setting": "Week 18 - Post-Infusion, n=11", "value": 0.30, "unit": "mg/dL"},
      {"measurement": "sUA < 6 mg/dL, %", "setting": "Week 18 - Pre-Infusion, n=11", "value": "(100%)"},
      {"measurement": "sUA observed, mean", "setting": "Week 18 - Pre-Infusion, n=11", "value": 0.30, "unit": "mg/dL"},
      {"measurement": "sUA observed, median", "setting": "Week 18 - Pre-Infusion, n=11", "value": 0.30, "unit": "mg/dL"},
      {"measurement": "sUA < 6 mg/dL, %", "setting": "Week 20 - Post-Infusion, n=11", "value": "(100%)"},
      {"measurement": "sUA observed, mean", "setting": "Week 20 - Post-Infusion, n=11", "value": 0.30, "unit": "mg/dL"},
      {"measurement": "sUA observed, median", "setting": "Week 20 - Post-Infusion, n=11", "value": 0.30, "unit": "mg/dL"},
      {"measurement": "sUA < 6 mg/dL, %", "setting": "Week 20 - Pre-Infusion, n=11", "value": "(100%)"},
      {"measurement": "sUA observed, mean", "setting": "Week 20 - Pre-Infusion, n=11", "value": 0.30, "unit": "mg/dL"},
      {"measurement": "sUA observed, median", "setting": "Week 20 - Pre-Infusion, n=11", "value": 0.30, "unit": "mg/dL"},
      {"measurement": "sUA < 6 mg/dL, %", "setting": "Week 22 - Post-Infusion, n=11", "value": "(100%)"},
      {"measurement": "sUA observed, mean", "setting": "Week 22 - Post-Infusion, n=11", "value": 0.30, "unit": "mg/dL"},
      {"measurement": "sUA observed, median", "setting": "Week 22 - Post-Infusion, n=11", "value": 0.30, "unit": "mg/dL"},
      {"measurement": "sUA < 6 mg/dL, %", "setting": "Week 22 - Pre-Infusion, n=11", "value": "(100%)"},
      {"measurement": "sUA observed, mean", "setting": "Week 22 - Pre-Infusion, n=11", "value": 0.30, "unit": "mg/dL"},
      {"measurement": "sUA observed, median", "setting": "Week 22 - Pre-Infusion, n=11", "value": 0.30, "unit": "mg/dL"},
      {"measurement": "sUA < 6 mg/dL, %", "setting": "Week 24 - Post-Infusion, n=5", "value": "(100%)"},
      {"measurement": "sUA observed, mean", "setting": "Week 24 - Post-Infusion, n=5", "value": 0.30, "unit": "mg/dL"},
      {"measurement": "sUA observed, median", "setting": "Week 24 - Post-Infusion, n=5", "value": 0.30, "unit": "mg/dL"},
      {"measurement": "sUA < 6 mg/dL, %", "setting": "Week 24 - Pre-Infusion, n=11", "value": "(100%)"},
      {"measurement": "sUA observed, mean", "setting": "Week 24 - Pre-Infusion, n=11", "value": 0.30, "unit": "mg/dL"},
      {"measurement": "sUA observed, median", "setting": "Week 24 - Pre-Infusion, n=11", "value": 0.30, "unit": "mg/dL"},
      {"measurement": "sUA < 6 mg/dL, %", "setting": "Week 26 - Pre-Infusion, n=8", "value": "(100%)"},
      {"measurement": "sUA observed, mean", "setting": "Week 26 - Pre-Infusion, n=8", "value": 0.30, "unit": "mg/dL"},
      {"measurement": "sUA observed, median", "setting": "Week 26 - Pre-Infusion, n=8", "value": 0.30, "unit": "mg/dL"},
      {"measurement": "sUA < 6 mg/dL, %", "setting": "Week 28 - Pre-Infusion, n=8", "value": "(100%)"},
      {"measurement": "sUA observed, mean", "setting": "Week 28 - Pre-Infusion, n=8", "value": 0.30, "unit": "mg/dL"},
      {"measurement": "sUA observed, median", "setting": "Week 28 - Pre-Infusion, n=8", "value": 0.30, "unit": "mg/dL"},
      {"measurement": "sUA < 6 mg/dL, %", "setting": "Week 30 - Pre-Infusion, n=8", "value": "(100%)"},
      {"measurement": "sUA observed, mean", "setting": "Week 30 - Pre-Infusion, n=8", "value": 0.30, "unit": "mg/dL"},
      {"measurement": "sUA observed, median", "setting": "Week 30 - Pre-Infusion, n=8", "value": 0.30, "unit": "mg/dL"},
      {"measurement": "sUA < 6 mg/dL, %", "setting": "Week 32 - Post-Infusion, n=8", "value": "(100%)"},
      {"measurement": "sUA observed, mean", "setting": "Week 32 - Post-Infusion, n=8", "value": 0.30, "unit": "mg/dL"},
      {"measurement": "sUA observed, median", "setting": "Week 32 - Post-Infusion, n=8", "value": 0.30, "unit": "mg/dL"},
      {"measurement": "sUA < 6 mg/dL, %", "setting": "Week 32 - Pre-Infusion, n=10", "value": "(100%)"},
      {"measurement": "sUA observed, mean", "setting": "Week 32 - Pre-Infusion, n=10", "value": 0.30, "unit": "mg/dL"},
      {"measurement": "sUA observed, median", "setting": "Week 32 - Pre-Infusion, n=10", "value": 0.30, "unit": "mg/dL"},
      {"measurement": "sUA < 6 mg/dL, %", "setting": "Week 34 - Post-Infusion, n=8", "value": "(100%)"},
      {"measurement": "sUA observed, mean", "setting": "Week 34 - Post-Infusion, n=8", "value": 0.30, "unit": "mg/dL"},
      {"measurement": "sUA observed, median", "setting": "Week 34 - Post-Infusion, n=8", "value": 0.30, "unit": "mg/dL"},
      {"measurement": "sUA < 6 mg/dL, %", "setting": "Week 34 - Pre-Infusion, n=10", "value": "(100%)"},
      {"measurement": "sUA observed, median", "setting": "Week 34 - Pre-Infusion, n=10", "value": 0.30, "unit": "mg/dL"},
      {"measurement": "sUA < 6 mg/dL, %", "setting": "Week 36 - Post-Infusion, n=6", "value": "(100%)"},
      {"measurement": "sUA observed, mean", "setting": "Week 36 - Post-Infusion, n=6", "value": 0.30, "unit": "mg/dL"},
      {"measurement": "sUA observed, median", "setting": "Week 36 - Post-Infusion, n=6", "value": 0.30, "unit": "mg/dL"},
      {"measurement": "sUA observed, median", "setting": "Week 36 - Pre-Infusion, n=9", "value": 0.30, "unit": "mg/dL"},
      {"measurement": "sUA < 6 mg/dL, %", "setting": "Week 38 - Pre-Infusion, n=5", "value": "(100%)"},
      {"measurement": "sUA observed, median", "setting": "Week 38 - Pre-Infusion, n=5", "value": 0.30, "unit": "mg/dL"},
      {"measurement": "sUA < 6 mg/dL, %", "setting": "Week 40 - Pre-Infusion, n=3", "value": "(100%)"},
      {"measurement": "sUA observed, mean", "setting": "Week 40 - Pre-Infusion, n=3", "value": 0.30, "unit": "mg/dL"},
      {"measurement": "sUA observed, median", "setting": "Week 40 - Pre-Infusion, n=3", "value": 0.30, "unit": "mg/dL"},
      {"measurement": "sUA < 6 mg/dL, %", "setting": "Week 42 - Pre-Infusion, n=3", "value": "(100%)"},
      {"measurement": "sUA observed, mean", "setting": "Week 42 - Pre-Infusion, n=3", "value": 0.30, "unit": "mg/dL"},
      {"measurement": "sUA observed, median", "setting": "Week 42 - Pre-Infusion, n=3", "value": 0.30, "unit": "mg/dL"},
      {"measurement": "sUA < 6 mg/dL, %", "setting": "Week 44 - Pre-Infusion, n=3", "value": "(100%)"},
      {"measurement": "sUA observed, median", "setting": "Week 44 - Pre-Infusion, n=3", "value": 0.30, "unit": "mg/dL"},
      {"measurement": "sUA < 6 mg/dL, %", "setting": "Week 46 - Pre-Infusion, n=2", "value": "(100%)"}
    ]}
  ]
}
